Assay results as given in PMC6130882 (PLoS Pathogens, 2018).

Molecular target: T1, MAdCAM-Ig fusion protein (human, UniProt Q13477 19-317)
T1 construct: also called Hu-MAdCAM-Ig; MAdCAM-1
T1 sequence (looked up): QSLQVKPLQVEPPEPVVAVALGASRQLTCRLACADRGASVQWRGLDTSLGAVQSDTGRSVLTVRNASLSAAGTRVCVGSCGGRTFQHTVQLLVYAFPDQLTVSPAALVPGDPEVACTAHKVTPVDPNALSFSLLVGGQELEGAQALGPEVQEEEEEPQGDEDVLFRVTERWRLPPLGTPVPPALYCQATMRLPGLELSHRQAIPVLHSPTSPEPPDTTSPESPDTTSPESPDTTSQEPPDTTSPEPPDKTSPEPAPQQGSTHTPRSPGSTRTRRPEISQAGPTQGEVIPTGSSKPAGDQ
Experiment: static cell adhesion assay; RPMI8866 cells on immobilised MAdCAM or cV2 92TH023 in buffer with a high concentration of MgCl2
Details: one partner purified

B1: integrin α4β7 expressed on the surface of RPMI8866 cells (receptor)
chain 1: not shown
chain 2: ELDAKIPSTGDATEWRNPHLSMLGSCQPAPSCQKCILSHPSCAWCKQLNFTASGEAEARRCARREELLARGCPLEELEEPRGQQEVLQDQPLSQGARGEGATQLAPQRVRVTLRPGEPQQLQVRFLRAEGYPVDLYYLMDLSYSMKDDLERVRQLGHALLVRLQEVTHSVRIGFGSFVDKTVLPFVSTVPSKLRHPCPTRLERCQSPFSFHHVLSLTGDAQAFEREVGRQSVSGNLDSPEGGFDAILQAALCQEQIGWRNVSRLLVFTSDDTFHTAGDGKLGGIFMPSDGHCHLDSNGLYSRSTEFDYPSVGQVAQALSAANIQPIFAVTSAALPVYQELSKLIPKSAVGELSEDSSNVVQLIMDAYNSLSSTVTLEHSSLPPGVHISYESQCEGPEKREGKAEDRGQCNHVRINQTVTFWVSLQATHCLPEPHLLRLRALGFSEELIVELHTLCDCNCSDTQPQAPHCSDGQGHLQCGVCSCAPGRLGRLCECSVAELSSPDLESGCRAPNGTGPLCSGKGHCQCGRCSCSGQSSGHLCECDDASCERHEGILCGGFGRCQCGVCHCHANRTGRACECSGDMDSCISPEGGLCSGHGRCKCNRCQCLDGYYGALCDQCPGCKTPCERHRDCAECGAFRTGPLATNCSTACAHTNVTLALAPILDDGWCKERTLDNQLFFFLVEDDARGTVVLRVRPQEKGADHTQAIVLGCVGGIVAVGLGLVLAYRLSVEIYDRREYSRFEKEQQQLNWKQDSNPLYKSAITTTINPRFQEADSPTL
notes: also called cell-surface expressed α4β7
fold reduction of adhesion in MgCl2 against MnCl2: ~5 fold
